Experimental data: the supplement of paper PMC11876631
Residue numbers refer to the chain shown, from its start. Numbers in names are those of the source. ± gives the standard deviation of the averaged measurements. Laboratory Escherichia coli strains with one amino-acid change in an essential protein, pooled on minimal glucose agar with carbenicillin or gentamicin at twice the control MIC (plus kanamycin and chloramphenicol for the plasmids), 48 h. Fold change of barcode share against drug-free plates; higher = less susceptible. Active = above 20 in both replicates (the paper's putatively resistant). '<' = one read or none on drug, '>' = one read or none on a drug-free plate. Shares are relative, so most strains fall below 1 when a few take over. Listed are strains with at least 15 reads on both drug-free plates, and hits; most hits rest on fewer reference reads. Replicate rank correlation about 0.5. Edits are read from barcodes.

B1: bioF L246D (protein)
chain: MSWQEKINAALDARRAADALRRRYPVAQGAGRWLVADDRQYLNFSSNDYLGLSHHPQIIRAWQQGAEQFGIGSGGSGHVSGYSVVHQALEEELAEWLGYSRALLFISGFAANQAVIAAMMAKEDRIAADRLSHASLLEAASLSPSQLRRFAHNDVTHLARLLASPCPGQQMVVTEGVFSMDGDSAPLAEIQQVTQQHNGWLMVDDAHGTGVIGEQGRGSCWLQKVKPELLVVTFGKGFGVSGAAVDCSSTVADYLLQFARHLIYSTSMPPAQAQALRASLAVIRSDEGDARREKLAALITRFRAGVQDLPFTLADSCSAIQPLIVGDNSRALQLAEKLRQQGCWVTAIRPPTVPAGTARLRLTLTAAHEMQDIDRLLEVLHGNG
B2: bioF L246P (protein)
chain: B1 chain with D246P
B3: bioF I320A (protein)
chain: B1 chain with D246L, I320A
B4: bioF I320Q (protein)
chain: B1 chain with D246L, I320Q
B5: bioF I320P (protein)
chain: B1 chain with D246L, I320P
B6: bioF V345A (protein)
chain: B1 chain with D246L, V345A
B7: bioF V345W (protein)
chain: B1 chain with D246L, V345W
B8: bioF V345Q (protein)
chain: B1 chain with D246L, V345Q
B9: bioF V345D (protein)
chain: B1 chain with D246L, V345D
B10: bioF V345P (protein)
chain: B1 chain with D246L, V345P
B11: accD V110A (protein)
chain: MSWIERIKSNITPTRKASIPEGVWTKCDSCGQVLYRAELERNLEVCPKCDHHMRMTARNRLHSLLDEGSLVELGSELEPKDVLKFRDSKKYKDRLASAQKETGEKDALVAMKGTLYGMPVVAAAFEFAFMGGSMGSVVGARFVRAVEQALEDNCPLICFSASGGARMQEALMSLMQMAKTSAALAKMQERGLPYISVLTDPTMGGVSASFAMLGDLNIAEPKALIGFAGPRVIEQTVREKLPPGFQRSEFLIEKGAIDMIVRRPEMRLKLASILAKLMNLPAPNPEAPREGVVVPPVPDQEPEA
B12: accD V110W (protein)
chain: B11 chain with A110W
B13: accD V110Q (protein)
chain: B11 chain with A110Q

Target: Escherichia coli (laboratory strain)
Test: barcode share on antibiotic plates over drug-free plates; higher = less susceptible
Procedure: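 A pool of E. coli strains, each edited to carry one amino-acid change in an essential protein, was grown for 48 h on minimal glucose agar with or without antibiotic; strain barcodes were sequenced; mean of two replicates.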

[1] = antibiotic: carbenicillin, 2× MIC (3.1 µg/mL)
[2] = antibiotic: gentamicin, 2× MIC (MIC 0.45 µg/mL)

Row | Protein | fold change of barcode share [1] | fold change of barcode share [2]
1 | B1 | 0.414 ± 0.14 | 0.0102 ± 0.007
2 | B2 | 0.376 ± 0.13 | 0.00433 ± 0.0049
3 | B3 | 0.452 ± 0.25 | 0.011 ± 0.0059
4 | B4 | 0.409 ± 0.17 | < 0.00835
5 | B5 | 0.362 ± 0.081 | 0.0188 ± 0.00029
6 | B6 | 0.409 ± 0.12 | 0.00952 ± 0.0051
7 | B7 | 0.717 ± 0.0075 | 0.0159 ± 0.0083
8 | B8 | 0.492 ± 0.016 | 0.00759 ± 0.00041
9 | B9 | 0.542 ± 0.035 | 0.0178 ± 0.0044
10 | B10 | 0.552 ± 0.036 | 0.00773 ± 0.0034
11 | B11 | 0.478 ± 0.06 | 0.0134 ± 0.0034
12 | B12 | 0.415 ± 0.053 | 0.00541 ± 0.0021
13 | B13 | 0.421 ± 0.018 | 0.00807 ± 0.0019
